According to PubChem BioAssay AID488969 (Vanderbilt High Throughput Screening Facility, 2010):
Whole data set: some 110,000 compounds, median “z-score” near -0.1, cut for the highest 2% near 2. The list shows a part of the results. Calls of active or inactive are those of the source.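 How the source made its calls: active means z-score in the third read window above 3 or below -3; inactive means the rest.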

Each compound was assayed against Metabotropic glutamate receptor 8 (Rattus norvegicus) (UniProt P70579) (assay: mGluR8 Gi/Go-coupled signaling modulation – cell-based, rat, thallium flux, HTS, primary screen (AID 488969)). Conditions: HEK293 rat mGluR8, GIRK (G protein-gated inwardly rectifying potassium channel) thallium flux, FluoZin2; at 10 µM; stronger effect = higher value; submaximal glutamate (EC20) added with thallium.
UniProt P70579, sequence (P70579 whole entry, looked up): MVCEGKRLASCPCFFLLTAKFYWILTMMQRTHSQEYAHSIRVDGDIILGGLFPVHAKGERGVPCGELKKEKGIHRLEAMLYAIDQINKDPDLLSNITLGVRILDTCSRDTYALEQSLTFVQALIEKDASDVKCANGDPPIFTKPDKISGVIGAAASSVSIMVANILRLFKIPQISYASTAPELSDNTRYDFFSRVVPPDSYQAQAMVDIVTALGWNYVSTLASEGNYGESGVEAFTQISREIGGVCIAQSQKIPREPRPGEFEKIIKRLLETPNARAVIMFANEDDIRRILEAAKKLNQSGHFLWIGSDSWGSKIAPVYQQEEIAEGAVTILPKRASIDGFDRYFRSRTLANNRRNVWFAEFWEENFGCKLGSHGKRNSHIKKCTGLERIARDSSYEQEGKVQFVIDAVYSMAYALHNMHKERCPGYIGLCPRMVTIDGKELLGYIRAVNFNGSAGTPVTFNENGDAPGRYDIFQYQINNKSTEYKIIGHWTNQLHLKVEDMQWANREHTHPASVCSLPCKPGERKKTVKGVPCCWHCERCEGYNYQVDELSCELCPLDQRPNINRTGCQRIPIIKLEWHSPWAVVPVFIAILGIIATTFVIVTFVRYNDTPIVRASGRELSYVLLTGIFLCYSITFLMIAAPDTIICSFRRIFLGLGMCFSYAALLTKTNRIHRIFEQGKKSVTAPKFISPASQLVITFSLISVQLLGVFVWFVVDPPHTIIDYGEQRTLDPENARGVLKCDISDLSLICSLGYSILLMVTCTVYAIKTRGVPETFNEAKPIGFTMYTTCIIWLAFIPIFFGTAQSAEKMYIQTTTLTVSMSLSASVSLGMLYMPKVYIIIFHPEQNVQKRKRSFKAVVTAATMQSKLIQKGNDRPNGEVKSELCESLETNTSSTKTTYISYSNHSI

Structure (SMILES) | z-score
O=C(Nc1ccc(Cl)cn1)c1cccc(F)c1 | 0.192
CCOC(=O)C1CCCN(C(=O)c2cc3nc(-c4cccc(OC)c4)cc(C(F)(F)F)n3n2)C1 (configuration not stated) | -0.347
CC(C)C(OC(=O)c1cccs1)C(=O)NC1CCCCC1 (configuration not stated) | 0.219
CC(C)c1ccc(S(=O)(=O)c2n[nH]n3c2nc(=O)c2ccccc23)cc1 | 2.66
Cc1ccccc1Nc1nc(N)nc(COC(=O)c2ccc(S(=O)(=O)N(C)C)cc2)n1 | -0.0781
COc1ccc(NC(=O)CCN2CCN(S(=O)(=O)c3cc(Cl)ccc3OC)CC2)cc1 | -0.139
COc1nc(OC)nc(N2CCC(C(=O)Nc3cccc4c3CCCC4)CC2)n1 | -0.455
COc1cccc(NC(=O)Cn2nnc(C(=O)Nc3ccccc3)c2N)c1 | 0.726
Cc1c(NC(=O)c2noc3c2CCc2ccccc2-3)c(=O)n(-c2ccccc2)n1C | -0.471
NC(=O)COc1ccc(NC(=O)OCc2ccccc2)cc1 | -0.0293
CCOC(=O)c1ccc(NC(=O)C2(c3ccc(OC)cc3)CCOCC2)cc1 | 0.831
O=c1c2c3c(sc2nc2n1CCCC2)CCCC3 | -0.196
O=c1oc2ccccc2c2c1ncn2-c1ccccc1 | -1.46
CSc1nnc(-c2ccccc2)c(=O)[nH]1 | -0.266
c1ccc(Cn2nnnc2-c2ccco2)cc1 | -0.194
CCOC(=O)N1CCN(C(=O)c2ccc3c(=O)n(CC4CCCO4)c(=S)[nH]c3c2)CC1 (configuration not stated) | 0.178
CCOC(=O)CCC(NC(=O)CCCCC(=O)NC(CCC(=O)OCC)C(=O)OCC)C(=O)OCC (configuration not stated) | 0.954
Cn1c(=O)c2c(nc(CN3CCc4ccccc4C3)n2CCc2ccccc2)n(C)c1=O | -0.281
Cc1cccc(Sc2ccc([N+](=O)[O-])cc2[N+](=O)[O-])n1 | -0.278
COc1ccc(OCC(O)Cn2cnc(-c3ccc(Br)cc3)c2)cc1 (configuration not stated) | 0.693
O=C1CN(C(=O)CSc2nc3ccccc3n2CCc2ccccc2)c2ccccc2N1 | -0.346
O=C(Nc1cccc2nsnc12)c1cccnc1 | 0.07
COC(=O)c1ccc(-c2sc3nc(N4CCOCC4)c4c(c3c2N)CCCC4)o1 | 1.06

Structure (SMILES) | z-score
O=C(COc1ccc2oc(-c3ccccc3)cc(=O)c2c1)NCc1ccco1 | -0.671
Cc1cc(N2CCCCCC2)nc2ccccc12 | -0.134
CC(C)CC(=O)Nc1cccc(C(=O)Nc2ccccc2C(=O)O)c1 | -0.773
N#Cc1nc(-c2ccc(OCc3ccccc3)cc2)oc1N1CCOCC1 | 0.782
CC(C)Oc1ccccc1C1CC(=O)Nc2cc3c(cc21)OCCO3 (configuration not stated) | -1.04
O=C(NC(=S)NC(=O)c1ccccc1F)c1ccccc1F | 0.339
CCCOC(=O)CSC1=C(C#N)C(c2ccccc2OC)C(C#N)C(=O)N1 (configuration not stated) | -0.687
O=C(CSc1nnc(-c2ccc(O)cc2)n1-c1ccccc1)CC(=O)Nc1ccccc1 | -0.867
COc1ccc(NC(C)C(=O)N/N=C/c2ccccc2OCc2ccc(Br)cc2)cc1 (configuration not stated) | 0.175
COc1ccc(OC)c(S(=O)(=O)N(C)CC(=O)Nc2ccccc2OC)c1 | 1.3
COc1ccc(Oc2nnnn2-c2ccccc2)cc1 | -0.0585
CCOC(=O)c1csc(NC(=O)c2ccc(S(=O)(=O)N(C)C)cc2)n1 | 0.173
Cc1cc(=O)oc2cc(OCC(=O)NCCCN3CCOCC3)ccc12 | -0.181
O=C(CN(Cc1ccco1)S(=O)(=O)c1cccs1)Nc1ccccc1C(F)(F)F | 0.0674
Cc1ccc(-c2nnc(N(C)C(=O)c3ccncc3)s2)cn1 | 0.272
O=C(CN1C(=O)C2CC=C(Cl)CC2C1=O)N1CCOCC1 (configuration not stated) | -0.256
O=C(NCC(=O)N(CCc1ccccc1)C(C(=O)NC1CCCCC1)c1ccncc1)c1ccco1 (configuration not stated) | 0.798
CCC1CCCCN1C(=O)CSc1nc2ccsc2c(=O)n1Cc1ccccc1 (configuration not stated) | -0.217
CC(=O)c1ccc(NC(=O)CSc2nccn2CCc2ccccc2)cc1 | -0.108
O=c1c2c3c(sc2ncn1-n1cccc1)CCCCC3 | -0.0877
COc1ccc(C(=O)OC(COc2ccccc2)Cn2ccnc2)cc1 (configuration not stated) | 0.964
O=C(Cc1ccc(Cl)cc1)N/N=C1\CCCc2ccccc21 | 0.288
COCCn1c(CN(C)Cc2ccccc2)nc2c1c(=O)n(C)c(=O)n2C | -0.377

Structure (SMILES) | z-score
CC(Nc1cc(=O)n(C)c(=O)[nH]1)c1ccccc1 (configuration not stated) | -0.0898
CC/C(O)=N\S(=O)(=O)c1ccc(N=NN(C)C)cc1 | 0.383
Cc1ccccc1N/C(SCc1ccc(Cl)cc1)=C(/C#N)C(N)=O | -0.0867
CN(C)C(=O)c1ccc2c(c1)n(C)c(=O)n2C | 0.644
Cc1nc(N2CCc3ccccc3C2)[nH]c(=O)c1CCC(C)C | 0.0795
Cc1cccc(N(CC(=O)N2CCCC2)S(=O)(=O)c2ccccc2)c1C | -0.0906
CCCOC(=O)c1sc2nc3c(cc2c1N)C(=O)CCC3 | -0.569
COc1cc2c(C#N)c(N3CCN(C)CC3)nc(N)c2c(N)n1 | 0.307
COc1ccc(CCNC(=O)CNS(=O)(=O)c2cccs2)cc1OC | -0.0149
CCn1nnnc1SCC(=O)NNC(=O)C1CCCCC1 | -0.27
O=C(CNC(=O)c1ccco1)Nc1ccc(S(=O)(=O)N2CCCC2)cc1 | -0.202
COc1cc(CNC(C)c2ccccc2)c(Br)cc1OCC(N)=O (configuration not stated) | -0.121
CSc1nnc2n(Cc3ccccc3)c(=O)c3c4c(sc3n12)COC(C(C)C)C4 (configuration not stated) | -0.311
C=CCSC1=N/C(=C\C=C\c2ccco2)C(=O)S1 | -0.31
Cc1ccc(Cl)c(OCC(=O)Nc2sc(C)c(C)c2C#N)c1 | 0.877
O=C(Cc1ccc(-n2c(=S)[nH]c3ccccc3c2=O)cc1)N1CCC(N2CCCCC2)CC1 | 0.0829
CCC(C)NC(=O)CSc1nnc(-c2ccoc2C)n1CC1CCCO1 (configuration not stated) | -0.168
NNc1nc2c(F)cccc2s1 | 0.0402
Cc1ccc(OCC(=O)NCc2ccccn2)cc1 | 0.0307
COc1ccc(/C(C)=N\NS(=O)(=O)c2ccccc2)cc1OC | -1.56
O=C(Nc1ccc(F)cc1)c1ccc(-n2ccnc2)nc1 | -0.238
CCOc1ccc(/C=N/n2cnnc2)cc1 | 1.83
O=C(Cn1c(COc2ccc(Cl)cc2)nc2ccccc21)NCC(F)(F)F | -0.0844

Structure (SMILES) | z-score
CCCCNc1c2c3c(cccc3n(C)c1=O)C(=O)c1ccccc1-2 | active: 16.2
NC(=O)N/N=C/c1ccc(N2CCOCC2)s1 | -0.0709
CCOc1ccc(Nc2c3c(nc4ncnn24)CC(C)CC3)cc1 (configuration not stated) | -1.23
COc1ccc(N2CC(C)Cn3c2nc2c3c(=O)[nH]c(=O)n2C)cc1 (configuration not stated) | -0.0601
Cc1noc(C)c1C(=O)Nc1c(F)cc(F)cc1Br | 0.559
CSc1ccccc1NC(=O)c1cc(C(C)C)on1 | 0.177
COc1ccc(O)c(C2=Nc3ccccc3N=C(c3ccco3)C2)c1 | -0.0378
CCOC(=O)C1CCN(C(=O)CN(c2cccc(C(F)(F)F)c2)S(C)(=O)=O)CC1 | -0.032
O=C1c2ccccc2C(=O)N1CCc1nc2ccccc2c(=O)n1-c1ccccn1 | 0.0757
CCN(CC)CCCN1C(=O)C(O)=C(C(=O)c2cc3cccc(OC)c3o2)C1c1ccncc1 (configuration not stated) | 0.548
CC[C@H](C)[C@H](NC(=O)c1ccc(Cl)cc1)C(=O)OCC(=O)c1ccc2c(c1)NC(=O)CO2 | 0.101
CC(C)(C)c1cn(-c2ccc(Cl)cc2)c(=S)[nH]1 | -0.267
Cc1ccc(NC(=O)/C(=C\c2ccc3c(c2)OCO3)NC(=O)c2ccco2)cc1 | -0.271
CC1CCN(c2c(NCC3CCC(C(=O)N4CCCC(C)C4)CC3)c(=O)c2=O)CC1 (configuration not stated) | -2.02
Cc1cccc(C)c1OCc1nnc(SCC(=O)Nc2nccs2)n1-c1ccccc1 | -0.09
Fc1ccc(-c2nnc(CSc3nnc(-c4cccs4)o3)o2)cc1 | -0.122
CN(C)CCNS(=O)(=O)c1ccc(N2CCN(c3ccc(F)cc3)CC2)c([N+](=O)[O-])c1 | 0.621
CN=C(Nc1cc(C)nn1-c1ccccc1)c1ccccc1 | 0.0933
CCc1sc(NS(C)(=O)=O)nc1-c1ccccc1 | 0.162
CCOC(=O)c1ccc(Nc2nnc(C(C)(C)C)c(=O)[nH]2)cc1 | -0.532
CCCC(=O)Nc1ccc(C(=O)O)cc1NC(=O)CCC | -0.181
COc1ccc(/C=C2\CCCC(C(=O)C(F)(F)F)=C2O)cc1 | 2.59
CC1=C(C(=O)Nc2ccc(C)cc2)C(c2ccco2)NC(=O)N1 (configuration not stated) | -0.8

Structure (SMILES) | z-score
COc1cc(C2c3c(-c4ccccc4)n[nH]c3C(=O)N2c2ccc(C(=O)O)cc2)ccc1O (configuration not stated) | -0.268
COC(=O)c1ccccc1NC(=O)C1CC(=O)N(c2ccccc2)C1 (configuration not stated) | -0.0106
CC(C)CCNC(=O)c1ccc2nc[nH]c2c1 | -0.133
CC(C)c1ccc(NC(=O)COC(=O)/C=C/c2cccc(Br)c2)cc1 | -0.0329
Cc1cc(C)c2c(CC(=O)Nc3nccs3)coc2c1 | 0.202
COc1ccc(CCNC(=O)c2ccc3c(c2)NC(=O)C(N2CCOCC2)S3)cc1OC (configuration not stated) | -0.194
Cc1cccc(-n2ncc3c(NCCCN4CCCC4=O)ncnc32)c1 | -0.117
O=C(Nc1cnc2ccccn2c1=O)c1ccc(Cl)cc1 | -0.161
CC1SC(c2cccc(Cl)c2)NC1=O (configuration not stated) | 0.0604
CCc1ccc2nc(NC(=O)CSCc3c(C)noc3C)sc2c1 | -0.0333
Cc1ccc(NC(=O)Nc2cccc([N+](=O)[O-])c2)cc1F | -0.525
CCC(=O)Nc1cccc(C(=O)c2ccccc2)c1 | -0.144
CCn1c(NC(C)=O)nc2ccccc21 | -0.0713
O=C(O)CSc1nnc(-c2ccncc2)n1-c1ccc(Cl)cc1 | -0.269
CCOC(=O)c1ccc(CNCc2ccc(C)cc2)cc1 | 0.302
Cn1c(=O)n(C)c2cc(/C=N/n3cnnc3)ccc21 | 0.045
CC(C)n1c(O)c(N=NC(=O)Cn2ccc(C(F)(F)F)n2)c2ccccc21 | 1.13
C/C(Sc1nnc(Cc2ccccc2)o1)=C(/O)c1ccccc1 | -0.227
C=CCSc1nc(-c2ccc3c(c2)OCO3)cc(C(F)(F)F)c1C#N | -0.124
CS(=O)(=O)N(Cc1ccc(C(=O)NCc2ccco2)cc1)c1ccccc1 | -0.268
